Reference: paper PMC4336329 (PLoS ONE, 2015)
Among all 310,000 compounds or so, about 2,200 (0.71%) showed an effect of 50% or more. Effects have a minus sign here. This is one part of the list. Where a SMILES comes first, the peptide text is derived from it. [ ]: non-standard residue; d: D form. The star is where a group is joined. ξ: configuration not given here. Tos = Cc1ccc(S(=O)(=O)*)cc1; Inp = O=C(O)C1CCNCC1; ξP = O=C(O)C1CCCN1

Molecular target: human ether-à-go-go-related gene (hERG) potassium channel (human, UniProt Q12809)
Sequence (Q12809 whole entry, looked up): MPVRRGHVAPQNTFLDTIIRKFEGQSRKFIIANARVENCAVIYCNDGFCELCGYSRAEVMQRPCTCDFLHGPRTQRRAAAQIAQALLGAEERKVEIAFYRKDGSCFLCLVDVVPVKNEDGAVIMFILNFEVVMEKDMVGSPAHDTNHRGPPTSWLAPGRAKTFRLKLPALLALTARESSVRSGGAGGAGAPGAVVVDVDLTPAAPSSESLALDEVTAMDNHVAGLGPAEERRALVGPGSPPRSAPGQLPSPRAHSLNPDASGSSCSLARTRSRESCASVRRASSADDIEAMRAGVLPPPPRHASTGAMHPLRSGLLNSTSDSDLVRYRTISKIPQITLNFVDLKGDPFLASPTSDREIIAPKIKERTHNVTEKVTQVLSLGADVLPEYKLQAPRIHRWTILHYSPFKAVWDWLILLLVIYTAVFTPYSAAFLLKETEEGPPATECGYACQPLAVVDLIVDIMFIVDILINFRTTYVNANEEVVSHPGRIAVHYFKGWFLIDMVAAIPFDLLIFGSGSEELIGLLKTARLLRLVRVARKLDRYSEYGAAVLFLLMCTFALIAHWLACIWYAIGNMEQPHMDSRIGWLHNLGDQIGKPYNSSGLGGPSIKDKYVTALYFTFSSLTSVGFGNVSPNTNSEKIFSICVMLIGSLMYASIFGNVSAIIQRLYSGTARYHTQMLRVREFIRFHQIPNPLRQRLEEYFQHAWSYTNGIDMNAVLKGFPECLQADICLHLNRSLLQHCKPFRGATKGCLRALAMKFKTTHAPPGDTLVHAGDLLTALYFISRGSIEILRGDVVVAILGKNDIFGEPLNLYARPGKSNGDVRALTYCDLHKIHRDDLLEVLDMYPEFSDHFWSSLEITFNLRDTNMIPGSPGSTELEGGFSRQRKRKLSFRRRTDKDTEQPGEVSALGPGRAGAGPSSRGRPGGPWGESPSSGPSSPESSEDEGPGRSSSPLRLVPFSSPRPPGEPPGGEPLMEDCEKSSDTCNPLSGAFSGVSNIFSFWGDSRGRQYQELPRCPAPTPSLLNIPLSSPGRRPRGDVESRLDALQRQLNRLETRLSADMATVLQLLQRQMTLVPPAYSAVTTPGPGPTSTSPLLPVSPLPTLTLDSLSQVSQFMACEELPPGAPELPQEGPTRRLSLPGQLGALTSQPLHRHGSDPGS
Assay: primary screen, population patch clamp on CHO cells stably expressing hERG

| SMILES | hERG current change (%, negative = inhibition) at 1uM |
| --- | --- |
| COc1ccc(OCC(=O)N/N=C\c2ccco2)cc1 | 16.3% |
| O=[N+]([O-])c1ccc(CN2CCN(c3ccccc3Cl)CC2)o1 | 15.1% |
| O=C(CCC(=O)c1ccccc1)Nc1ccccc1 | 6.96% |
| CCOC(=O)C1CCCN(CCC(=O)Nc2ccc(C)cc2)C1.Cl (stereo not shown) | -2.07% |
| O=C(COC(=O)c1n[nH]c2ccccc12)NCc1ccccc1 | 1.09% |
| Cc1cc(C(=O)NCCC2=CCCCC2)ccc1[N+](=O)[O-] | 5.97% |
| COc1ccccc1CC(=O)Nc1ccc([N+](=O)[O-])cc1OC | 8.75% |
| Cc1cc(Cl)ccc1OCC(=O)OCC(=O)Nc1ccc(F)c([N+](=O)[O-])c1 | 6.56% |
| O=C(Cc1coc2ccc3ccccc3c12)NCc1ccccc1 | -2.89% |
| CCNC(=S)N/N=C(\C)c1ccc2ccccc2c1 | 8.73% |
| COc1ccc(NC(=O)CSCC(=O)Nc2ccc(C)c(S(=O)(=O)N3CCCCCC3)c2)cc1 | -0.337% |
| COc1ccc(C(=O)Nc2ccccc2C(=O)NCCN2CCOCC2)cc1 | 2.89% |
| O=C(Nc1ccc2c(c1)CN(Cc1ccc(CO)o1)CC2)c1ccc(C(F)(F)F)cc1 | 11.2% |
| Oc1ccc(Br)cc1/C=N/N1CCN(Cc2ccccc2)CC1 | 8.32% |
| O=C(CCC(NC(=O)OCc1ccccc1)C(=O)OCC(=O)N1CCCCC1)OCC(=O)N1CCCCC1 (stereo not shown) | 3.2% |
| COc1ccc(C(=O)CN(CCC(=O)O)S(=O)(=O)c2ccc([N+](=O)[O-])cc2)cc1 | 3.35% |
| Cc1csc(=O)n1CC(=O)OCc1cccc2ccccc12 | 6.77% |
| O=C(/C=C/c1cccc([N+](=O)[O-])c1)NC1CC2CCC1C2 (stereo not shown) | -2.96% |
| CCOC(=O)c1c(NC(=O)c2c(C)noc2C)sc2c1CCCCC2 | 13% |
| COc1cc(NS(=O)(=O)c2ccc(N/C=C(\C#N)c3nc4cc(Cl)ccc4o3)cc2)nc(OC)n1 | -7.19% |
| Oc1ccccc1-c1nnc(COc2ccc(Cl)cc2Cl)o1 | 11.2% |
| COc1cc(N/N=C/c2ccccc2O)ncn1 | 9.33% |

| SMILES | hERG current change (%, negative = inhibition) at 1uM |
| --- | --- |
| Cc1ccc(NC(=O)COC(=O)C2CC3C=CC2C3)cc1S(=O)(=O)N1CCCCC1 (stereo not shown) | 5.06% |
| CCN(/C(N)=N/c1nc(C)cc(C)n1)c1ccccc1 | 6.07% |
| CCOC(=O)c1c(S(=O)(=O)N(C)Cc2ccco2)c(C)n(C)c1C | 7.63% |
| CCCCN1C(=O)c2ccc(C(=O)Nc3ccccc3N3CCOCC3)cc2C1=O | -0.178% |
| Cc1cc(=O)n2[nH]c(C(=O)O)nc2n1 | 16.6% |
| Cc1cccc(N2C(=O)C3CC3C2=O)c1 (stereo not shown) | 20.4% |
| O=C(NC12CC3CC(CC(C3)C1)C2)c1ccc(COc2ccc(Cl)cc2[N+](=O)[O-])o1 | 11.2% |
| O=C(COc1ccc(Cl)cc1)N(Cc1ccco1)C1CCS(=O)(=O)C1 (stereo not shown) | 2.27% |
| COc1ccc(/C=C(\C#N)C(=O)C(C)(C)n2cncn2)cc1 | 17.9% |
| CCNC(=S)Nc1ccc(C)c(Cl)c1 | 16.1% |
| COc1ccc2cc(/C=N/NC(=O)CN(c3ccccc3)S(=O)(=O)c3ccccc3)c(Cl)nc2c1 | 13.5% |
| CCOc1cc(/C=C2\CN(C)C/C(=C\c3ccc(O)c(OCC)c3)C2=O)ccc1O.Cl | 11.9% |
| COc1ccc(/C=C/C(=O)NCCc2c[nH]c3ccccc23)cc1OC | 3.12% |
| CN(C)CCN(C(=O)c1ccc2c(c1)OCCO2)c1nc2cc3c(cc2s1)OCO3.Cl | 5.58% |
| O=C(c1cn(-c2ccccc2)nc1-c1ccccc1)N1CCN(c2ccccn2)CC1 | 11.7% |
| Nc1c(S(=O)(=O)c2ccccc2)c2nc3ccccc3nc2n1CCN1CCOCC1 | 0.332% |
| CCN(c1ccc(NC(=O)COC(=O)c2ccc([N+](=O)[O-])o2)cc1)C(C)C | 13.1% |
| Cc1cccc(NC(=O)CSCC(=O)Nc2sccc2C#N)c1 | 0.701% |
| O=C(CN1CCCCCCC1)N/N=C/c1ccc([N+](=O)[O-])o1 | -13.3% |
| COc1ccc(C(=O)NCCCNC(=O)c2cccnc2)cc1Br | 12.8% |
| COc1ccc(-c2cc(C(=O)N3CCCCC3)c3ccccc3n2)cc1OC | 6.7% |
| CSc1nnc2c(n1)OC(c1ccsc1)N(C(C)=O)c1ccccc1-2 (stereo not shown) | -11.9% |

| SMILES | hERG current change (%, negative = inhibition) at 1uM |
| --- | --- |
| CCC(C)n1c(=S)[nH]c2ccccc2c1=O (stereo not shown) | 7.24% |
| O=S1(=O)NC(CC2=CCCCC2)C2CCCCC2O1 (stereo not shown) | 14.8% |
| O=C(NNc1cccc(Cl)n1)Nc1ccc(Cl)cc1 | 13.3% |
| Cn1ccnc1C(=O)c1ccc(Cl)c(S(=O)(=O)N2CCOCC2)c1 | 12.4% |
| COc1ccc(Cl)cc1NC(=O)COc1ccc(S(=O)(=O)N2CCOCC2)cc1C | 11.2% |
| CC(Sc1nncs1)C(=O)NC1CCCCC1C (stereo not shown) | 13.1% |
| CSC1=NCCN1C(=O)Cc1cccc2ccccc12 | 11.2% |
| O=C(Nc1cc([N+](=O)[O-])ccc1O)NC1CCS(=O)(=O)C1 (stereo not shown) | 12.3% |
| Cc1nnc(Nc2ccc(C(=O)N3CCOCC3)cc2)c2ccccc12 | 8.96% |
| CCCn1c(N)nc2ccccc21 | 9.27% |
| COC(=O)c1ccccc1OC(=O)c1cccnc1 | 12.2% |
| CN(C)S(=O)(=O)c1ccc(NC(=O)CN2CCN(c3ccccn3)CC2)cc1 | 12.9% |
| CC(=O)Nc1ccc(NC(=O)c2ccc(COc3ccc(C)cc3)o2)cc1 | 12.6% |
| Brc1ccccc1-c1nc2c3ccccc3ncn2n1 | 6.3% |
| CC(C)NC(=O)c1ccc2c(=O)n(CC3CCCO3)c(=S)[nH]c2c1 (stereo not shown) | 8.36% |
| Cc1ccccc1-n1c(SCC(=O)N/N=C/c2sccc2C)nc2ccccc2c1=O | 8.81% |
| COc1ccc(/C=C(\C#N)C(=O)ONC2=NCCCCC2)cc1 | 5.63% |
| Cc1ccc(S(=O)(=O)N2CCC(C(=O)N3CCCC3C(=O)N[C@@H](CC(C)C)C(=O)NCC(N)=O)CC2)cc1 (stereo partly drawn) ({Tos-Inp}-[ξP]-Leu-Gly-NH2) | -5.02% |
| Cl.Clc1ccc(Nc2nc3cccnc3s2)cc1 | 16.8% |
| O=c1[nH]cnc2sc3c(c12)CCN(Cc1ccccc1)C3 | 13.2% |
| COC(=O)c1ccc(Cc2ccccc2)o1 | 8.64% |
| Cl.N/C(=N\N=C/c1ccc(Br)cc1)N/N=C\c1ccc(Br)cc1 | 2.47% |

| SMILES | hERG current change (%, negative = inhibition) at 1uM |
| --- | --- |
| COC(=O)c1ccc(NC(=S)NCCc2ccc(OC)cc2)cc1 | 14.3% |
| Cc1noc(C)c1COC(=O)COc1ccc(C#N)cc1 | 14.4% |
| O=C(NNC(=O)c1ccccc1O)c1ccc(Cl)c(S(=O)(=O)N2CCc3ccccc32)c1 | 14.1% |
| CC1(C)Cc2c(sc(NC(=O)c3ccc(S(=O)(=O)N4CCCC4)cc3)c2C#N)C(C)(C)N1 | 3.25% |
| Cc1ccc(F)c(NC(=O)C2CCCCC2C(=O)O)c1 (stereo not shown) | 14.5% |
| Clc1ccc(/C=C/c2ncc3ccccn23)cc1 | 7.34% |
| CC(C)C(=O)Nc1ccc(C(=O)c2ccccc2)cc1 | -0.822% |
| CN(CCOC(=O)c1cccc(F)c1)Cc1ccccc1.Cl | -3.43% |
| COc1cc(/C=C2\C(=N)N3N=CSC3=NC2=O)ccc1OS(=O)(=O)c1ccccc1 | 6.08% |
| COC(=O)CCC(=O)OC1(C)C(=O)C2=CN(CCN3CCOCC3)C(c3ccc(OC)cc3)=CC2=C(Br)C1=O (stereo not shown) | -1.84% |
| O=C(CSCc1ccc(F)cc1)NCc1ccc(F)cc1 | 2.28% |
| COc1ccc(N2CCN(c3nc(NCCc4ccc(OC)c(OC)c4)nc(OC)n3)CC2)cc1 | -42.1% |
| O=c1c2ccccc2c(/C=N/c2nnc(Cc3ccccc3)s2)c(O)n1-c1ccc(Cl)cn1 | 11.3% |
| COc1cc(C(=O)N(C)CCOc2ccccc2)ccc1OCC(=O)Nc1cccc(C(F)(F)F)c1 | 3.32% |
| Cc1ccc(CNC(=O)C2CC(=O)OC23CCCC3)c(C)c1 (stereo not shown) | 6.84% |
| O=C(CN(C(=O)CSc1nc2ccccc2o1)c1ccccc1F)NC1CCCCC1 | 7.57% |
| CS(=O)(=O)NNP(=O)(NNS(C)(=O)=O)NC(=O)c1ccc(Br)cc1 | 13% |
| Cc1cc2nc(SCC(=O)O)nc(C)c2cc1C | 13.4% |
| O=C(/C=C/Nc1ccc(F)cc1)c1ccc(Oc2ncccn2)cc1 | 14.8% |
| CC1CCC(C(C)C)C(OC(=O)Cn2c(-c3ccccc3)[n+](C)c3ccccc32)C1.[Cl-] (stereo not shown) | -42.1% |
| CCC(C)(C(=O)Nc1c(C)cccc1C)N(C)C(=O)c1ccc2ccccc2n1 (stereo not shown) | 13.7% |
| CN1CCOCCOCCN(C)C(=O)N2CCOCCOCCN(CCOCC2)C1=O | 11.8% |
